From the supplement of paper PMC8728848
This is one part of the list.

Columns and labels:
Assay in all cases: glycan array binding signal (z-score within array); higher = stronger binding
Conditions in all cases: glycan notation: IUPAC condensed, linker removed
[1] = target: Gal(b1-3)GlcNAc(b1-2)Man(a1-3)[Gal(b1-3)GlcNAc(b1-2)Man(a1-6)]Man(b1-4)GlcNAc(b1-4)[Fuc(a1-6)]GlcNAc
How it was run: (§1)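 Glycan array data were curated from 3228 arrays in the Consortium for Functional Glycomics database and kept only where the protein sequence was available. Glycan names were converted to IUPAC-condensed notation, and columns mapping to the same glycan were averaged. The binding signal is a within-array Z-score, averaged across arrays of the same protein sequence at different concentrations or buffers and across linkers. Negative Z-scores can be read as non-binding.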

[2] = target: Gal(b1-3)GlcNAc(b1-2)Man(a1-3)[GlcNAc(b1-4)][Gal(b1-3)GlcNAc(b1-2)Man(a1-6)]Man(b1-4)GlcNAc(b1-4)GlcNAc
How it was run: as §1

[3] = target: Gal(b1-3)GlcNAc(b1-2)[Gal(b1-3)GlcNAc(b1-6)]Man(a1-6)[Gal(b1-3)GlcNAc(b1-2)Man(a1-3)]Man(b1-4)GlcNAc(b1-4)GlcNAc
How it was run: as §1

[4] = target: Gal(b1-3)GlcNAc(b1-3)Gal(b1-3)GlcNAc
How it was run: as §1

[5] = target: Gal(b1-3)GlcNAc(b1-3)Gal(b1-4)Glc
How it was run: as §1

[6] = target: Gal(b1-3)GlcNAc(b1-3)Gal(b1-4)GlcNAc
How it was run: as §1

[7] = target: Gal(b1-3)GlcNAc(b1-3)Gal(b1-4)GlcNAc(b1-2)Man(a1-3)[Gal(b1-3)GlcNAc(b1-3)Gal(b1-4)GlcNAc(b1-2)Man(a1-6)]Man(b1-4)GlcNAc(b1-4)GlcNAc
How it was run: as §1

[8] = target: Gal(b1-3)GlcNAc(b1-3)Gal(b1-4)GlcNAc(b1-2)[Gal(b1-3)GlcNAc(b1-3)Gal(b1-4)GlcNAc(b1-6)]Man(a1-6)[Gal(b1-3)GlcNAc(b1-3)Gal(b1-4)GlcNAc(b1-2)Man(a1-3)]Man(b1-4)GlcNAc(b1-4)[Fuc(a1-6)]GlcNAc
How it was run: as §1

[9] = target: Gal(b1-3)GlcNAc(b1-3)Gal(b1-4)GlcNAc(b1-3)Gal(b1-4)GlcNAc(b1-2)[Gal(b1-3)GlcNAc(b1-3)Gal(b1-4)GlcNAc(b1-3)Gal(b1-4)GlcNAc(b1-6)]Man(a1-6)[Gal(b1-3)GlcNAc(b1-3)Gal(b1-4)GlcNAc(b1-3)Gal(b1-4)GlcNAc(b1-2)Man(a1-3)]Man(b1-4)GlcNAc(b1-4)[Fuc(a1-6)]GlcNAc
How it was run: as §1

[10] = target: Gal(b1-3)GlcNAc(b1-3)Gal(b1-4)GlcNAc(b1-6)[Gal(b1-3)GlcNAc(b1-3)]Gal(b1-4)Glc
How it was run: as §1

[11] = target: Gal(b1-3)GlcNAc(b1-3)Gal(b1-4)[Fuc(a1-3)]GlcNAc
How it was run: as §1

[12] = target: Gal(b1-3)GlcNAc(b1-3)Gal(b1-4)[Fuc(a1-3)]GlcNAc(b1-6)[Gal(b1-3)GlcNAc(b1-3)]Gal(b1-4)Glc
How it was run: as §1

[13] = target: Gal(b1-3)GlcNAc(b1-3)GalNAc
How it was run: as §1

[14] = target: Gal(b1-3)GlcNAc(b1-6)Gal(b1-4)GlcNAc
How it was run: as §1

[15] = target: Gal(b1-3)GlcNAc(b1-6)GalNAc
How it was run: as §1

[16] = target: Gal(b1-3)GlcNAc(b1-6)[Gal(b1-3)]GalNAc
How it was run: as §1

Gal(b1-3)GlcNAc6S = target: Gal(b1-3)GlcNAc6S
How it was run: as §1

[17] = target: Gal(b1-3)[Fuc(a1-4)]GlcNAc
How it was run: as §1

[18] = target: Gal(b1-3)[Fuc(a1-4)]GlcNAc(b1-2)Man
How it was run: as §1

[19] = target: Gal(b1-3)[Fuc(a1-4)]GlcNAc(b1-2)Man(a1-3)[Gal(b1-3)[Fuc(a1-4)]GlcNAc(b1-2)Man(a1-6)]Man(b1-4)GlcNAc(b1-4)[Fuc(a1-6)]GlcNAc
How it was run: as §1

[20] = target: Gal(b1-3)[Fuc(a1-4)]GlcNAc(b1-3)Gal(b1-3)[Fuc(a1-4)]GlcNAc
How it was run: as §1

[21] = target: Gal(b1-3)[Fuc(a1-4)]GlcNAc(b1-3)Gal(b1-4)[Fuc(a1-3)]GlcNAc
How it was run: as §1

[22] = target: Gal(b1-3)[Fuc(a1-4)]GlcNAc(b1-6)GalNAc
How it was run: as §1

[23] = target: Gal(b1-3)[GlcNAc(b1-6)]GalNAc
How it was run: as §1

[24] = target: Gal(b1-3)[Neu5Ac(a2-6)]GalNAc
How it was run: as §1

[25] = target: Gal(b1-3)[Neu5Ac(a2-6)]GlcNAc(b1-4)Gal(b1-4)Glc
How it was run: as §1

[26] = target: Gal(b1-3)[Neu5Ac(b2-6)]GalNAc
How it was run: as §1

Gal(b1-4)Gal = target: Gal(b1-4)Gal
How it was run: as §1

[27] = target: Gal(b1-4)GalNAc(a1-3)[Fuc(a1-2)]Gal(b1-4)GlcNAc
How it was run: as §1

[28] = target: Gal(b1-4)GalNAc(b1-3)[Fuc(a1-2)]Gal(b1-4)GlcNAc
How it was run: as §1

Gal(b1-4)Glc = target: Gal(b1-4)Glc
How it was run: as §1

Gal(b1-4)Glc6S = target: Gal(b1-4)Glc6S
How it was run: as §1

Gal(b1-4)GlcNAc = target: Gal(b1-4)GlcNAc
How it was run: as §1

[29] = target: Gal(b1-4)GlcNAc(a1-6)Gal(b1-4)GlcNAc
How it was run: as §1

Gal(b1-4)GlcNAc(b1-2)Man = target: Gal(b1-4)GlcNAc(b1-2)Man
How it was run: as §1

[30] = target: Gal(b1-4)GlcNAc(b1-2)Man(a1-3)Man(b1-4)GlcNAc(b1-4)GlcNAc
How it was run: as §1

[31] = target: Gal(b1-4)GlcNAc(b1-2)Man(a1-3)[Gal(b1-4)GlcNAc(b1-2)Man(a1-6)]Man(b1-4)GlcNAc(b1-4)GlcNAc
How it was run: as §1

[32] = target: Gal(b1-4)GlcNAc(b1-2)Man(a1-3)[Gal(b1-4)GlcNAc(b1-2)Man(a1-6)]Man(b1-4)GlcNAc(b1-4)[Fuc(a1-6)]GlcNAc
How it was run: as §1

[33] = target: Gal(b1-4)GlcNAc(b1-2)Man(a1-3)[Gal(b1-4)GlcNAc(b1-2)Man(a1-6)][Gal(b1-4)GlcNAc(b1-4)]Man(b1-4)GlcNAc(b1-4)[Fuc(a1-6)]GlcNAc
How it was run: as §1

[34] = target: Gal(b1-4)GlcNAc(b1-2)Man(a1-3)[Gal(b1-4)GlcNAc(b1-2)Man(a1-6)][GlcNAc(b1-4)]Man(b1-4)GlcNAc(b1-4)[Fuc(a1-6)]GlcNAc
How it was run: as §1

[35] = target: Gal(b1-4)GlcNAc(b1-2)Man(a1-3)[GlcNAc(b1-2)Man(a1-6)]Man(b1-4)GlcNAc(b1-4)GlcNAc
How it was run: as §1

[36] = target: Gal(b1-4)GlcNAc(b1-2)Man(a1-3)[GlcNAc(b1-4)][Gal(b1-4)GlcNAc(b1-2)Man(a1-6)]Man(b1-4)GlcNAc(b1-4)GlcNAc
How it was run: as §1

[37] = target: Gal(b1-4)GlcNAc(b1-2)Man(a1-3)[Man(a1-6)]Man(b1-4)GlcNAc(b1-4)GlcNAc
How it was run: as §1

[38] = target: Gal(b1-4)GlcNAc(b1-2)Man(a1-6)Man(b1-4)GlcNAc(b1-4)GlcNAc
How it was run: as §1

[39] = target: Gal(b1-4)GlcNAc(b1-2)Man(a1-6)[GlcNAc(b1-2)Man(a1-3)]Man(b1-4)GlcNAc(b1-4)GlcNAc
How it was run: as §1

B1: LngA (Escherichia coli) (protein)
chain: MLSVYNRTQKFKAEARKKIAKYHELRKQRGMSLLEVIIVLGIIGTIAAGVVILAQRAFDSRAVTDLVTNTNTVRVRMKDAYQRDGKYPDFVDPLSLTANTIKTDTSGIPAAQLVQLGKITPDEVRNNISGDFIAIGGALTSNGAQVKKGFAIELNGLSQEQCRSILGQVGNNWEYVAIGTSASGSYAMTATGVDMSVAASTTVLRSLGNNGQTTLTADKILSTCTAQVNSITLGSR
glycan array binding signal (z-score) [1]: -0.459
glycan array binding signal (z-score) [2]: -0.39
glycan array binding signal (z-score) [3]: -0.375
glycan array binding signal (z-score) [4]: -0.304
glycan array binding signal (z-score) [5]: -0.431
glycan array binding signal (z-score) [6]: -0.414
glycan array binding signal (z-score) [7]: -0.293
glycan array binding signal (z-score) [8]: 1.4
glycan array binding signal (z-score) [9]: 1.52
glycan array binding signal (z-score) [10]: -0.487
glycan array binding signal (z-score) [11]: -0.483
glycan array binding signal (z-score) [12]: -0.463
glycan array binding signal (z-score) [13]: -0.398
glycan array binding signal (z-score) [14]: -0.512
glycan array binding signal (z-score) [15]: -0.486
glycan array binding signal (z-score) [16]: 1.41
glycan array binding signal (z-score) (Gal(b1-3)GlcNAc6S): -0.169
glycan array binding signal (z-score) [17]: -0.113
glycan array binding signal (z-score) [18]: 1.12
glycan array binding signal (z-score) [19]: 1.02
glycan array binding signal (z-score) [20]: -0.572
glycan array binding signal (z-score) [21]: -0.462
glycan array binding signal (z-score) [22]: -0.438
glycan array binding signal (z-score) [23]: -0.356
glycan array binding signal (z-score) [24]: -0.585
glycan array binding signal (z-score) [25]: -0.323
glycan array binding signal (z-score) [26]: -0.499
glycan array binding signal (z-score) (Gal(b1-4)Gal): 0.16
glycan array binding signal (z-score) [27]: -0.479
glycan array binding signal (z-score) [28]: -0.632
glycan array binding signal (z-score) (Gal(b1-4)Glc): -0.026
glycan array binding signal (z-score) (Gal(b1-4)Glc6S): 1.62
glycan array binding signal (z-score) (Gal(b1-4)GlcNAc): -0.161
glycan array binding signal (z-score) [29]: -0.522
glycan array binding signal (z-score) (Gal(b1-4)GlcNAc(b1-2)Man): -0.208
glycan array binding signal (z-score) [30]: -0.325
glycan array binding signal (z-score) [31]: -0.412
glycan array binding signal (z-score) [32]: -0.453
glycan array binding signal (z-score) [33]: -0.407
glycan array binding signal (z-score) [34]: -0.61
glycan array binding signal (z-score) [35]: -0.469
glycan array binding signal (z-score) [36]: -0.51
glycan array binding signal (z-score) [37]: -0.393
glycan array binding signal (z-score) [38]: -0.416
glycan array binding signal (z-score) [39]: -0.45
